# Measured values published in the supplement of paper PMC3334620.
# Over roughly 33,000 sequences, “E-score (-0.5 to 0.5)” has its median near -0.04; the highest 2% begin near 0.36. The list shows a part of the results.
# Biological target: T1, Hmlalpha2 (UniProt P0CY09)
# T1 sequence: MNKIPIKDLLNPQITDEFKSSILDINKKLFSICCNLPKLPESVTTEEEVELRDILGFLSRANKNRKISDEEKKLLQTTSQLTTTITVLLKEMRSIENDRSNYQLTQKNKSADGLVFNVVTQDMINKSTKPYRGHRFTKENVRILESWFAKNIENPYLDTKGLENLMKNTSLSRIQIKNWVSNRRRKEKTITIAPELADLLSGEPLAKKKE
# Experiment: PBM E-score (8-mer binding enrichment) (E-score (-0.5 to 0.5)); higher = stronger / more preferred TF binding; most listed sequences are background and not binding sites
# Details: protein concentration: 200 nM; construct: GST-full length
# In short: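 Bound GST-tagged yeast transcription factors, applied at about 100-200 nM to double-stranded universal all-10-mer Agilent arrays, were detected with fluorescent anti-GST. Scans were normalised with masliner. A modified Wilcoxon-Mann-Whitney statistic, the E-score, was assigned to each ungapped eight-base word pooled with its reverse complement by the Universal PBM Analysis Suite.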
row,Sequence,PBM E-score
1,CTATGAAA,-0.148
2,TGCGTACA,0.34
3,CGCTGAGA,-0.139
4,TACAACAA,0.343
5,ACTGTCCG,-0.162
6,GCCAGAAA,-0.0992
7,AACCTTAC,0.0858
8,CTGTGGTA,0.00157
9,ACTTTGGA,0.136
10,CTGGGAAC,0.0389
11,GGTTTAAC,0.279
12,GCATCCAC,-0.0842
13,ATGCGTTG,0.205
14,ACTCTCTC,-0.0496
15,GACTTAAA,-1e-05
16,ACTGTTTG,0.0875
17,AGTATACA,0.322
18,ACAAGAAT,0.232
19,CAGAGCAG,-0.0684
20,ACGGCCCG,-0.151
21,AATTGTAC,0.242
22,GAGTGCGA,-0.329
23,CAACATAC,0.303
24,CCCAACGC,0.0787
25,ACTTCACA,0.176

row,Sequence,PBM E-score
1,CTTAAGCC,-0.0732
2,CTGCCACC,-0.252
3,ACAAGCGC,0.0928
4,ACCGAATC,7e-05
5,GCATGTCC,-0.0024
6,ACGCATCT,0.155
7,CAGTCGCA,-0.206
8,TGTAGACA,0.341
9,CGGCTCAG,-0.0972
10,CATGATAA,0.322
11,CTGTTCTA,0.102
12,ATCGTGTA,0.475
13,CTCGGAAC,-0.021
14,ACGCATAG,0.0324
15,CACACCTA,0.0464
16,CGGGGCCA,-0.254
17,CAATTATG,0.117
18,ACTGGCAT,-0.206
19,ACGCATAT,0.136
20,TATTACGA,0.285
21,CCTCGTTC,-0.142
22,ATATTGAT,-0.0428
23,ATCAAACA,0.0336
24,AATCCCAA,-0.104
25,TTTCGAAA,0.0465

row,Sequence,PBM E-score
1,GGGACCAC,-0.112
2,AGGTACTG,-0.0369
3,ATTAGACA,0.182
4,AGCCGATG,-0.139
5,AAATTAAC,0.217
6,ACGGAGAT,-0.286
7,CCAACGAG,-0.159
8,CTGGTCCC,-0.224
9,AACTATTA,0.172
10,ACTTAATG,0.175
11,GTCGCTAA,0.0136
12,ATATTATG,0.257
13,ATATGCAA,0.089
14,CATCCTCG,0.00622
15,AGCGTTCC,-0.145
16,GATTAATC,0.0567
17,CTATTGAG,-0.0536
18,CTACTCTA,-0.0943
19,GATCTGAC,-0.0309
20,CGATTAAA,0.12
21,ATTTGGTA,0.0623
22,CCCGGGTC,-0.336
23,CGGGTAAA,0.234
24,AGCGCGGC,-0.0315
25,AGGGCTCG,-0.275

row,Sequence,PBM E-score
1,AAGAAATG,-0.0371
2,CCTCACCA,-0.177
3,ACCGAGGG,-0.364
4,AAGTGGTA,0.0573
5,ATTTTTGA,0.0657
6,CCGTTCCC,-0.229
7,GAGCAGCA,-0.127
8,ACAGCAAT,0.0423
9,ATACGATC,-0.0381
10,GATCTGCC,-0.0569
11,AAAGAATC,-0.124
12,CGCTACTC,-0.113
13,ACTTCGAT,0.0864
14,AAGGGGTG,-0.182
15,GCCTGCAA,-0.23
16,AGTGTAGC,-0.046
17,AGAGCTAG,-0.0667
18,GTAGTCAC,-0.0239
19,CTAGAGGA,-0.0758
20,GAAAAGTA,-0.0314
21,AATGTGCA,0.077
22,AAGTTTCC,0.0351
23,TTGCGAAA,0.261
24,GGAGTGCA,-0.144
25,AGTGAGCG,-0.184

row,Sequence,PBM E-score
1,GTAAATAC,0.356
2,AAGCAAGC,-0.0851
3,GAATGAGA,-0.0838
4,AGCATGGG,-0.103
5,AGAAATAC,0.0857
6,AGGATACG,-0.054
7,AACAAATT,0.3
8,CGATGTAG,0.106
9,CTTTCTTC,-0.09
10,CTAACGGA,-0.0271
11,GGAACATA,0.184
12,AGTATTTA,0.209
13,AGCTAGCT,0.0497
14,GAGGAGGC,-0.251
15,AACACGGT,0.402
16,ATGGTAGA,0.079
17,CTGAAACA,0.135
18,CTTCAAAC,-0.0259
19,AGCTAGTA,0.149
20,GCGATGAA,0.0458
21,CGAGTAAG,-0.0179
22,CCTGTTTA,0.0153
23,CACGTGGC,-0.0908
24,GGCCCACA,-0.204
25,GGACCACC,-0.146

row,Sequence,PBM E-score
1,CTTAAACC,-0.0586
2,GACAATCA,-0.0879
3,ACATGCAA,0.398
4,ATCCGTAC,0.0968
5,CGATGAAC,0.0568
6,ACAAGTGG,0.0906
7,CCTCGCGA,-0.207
8,AGGCGGTC,-0.191
9,ACCGGATC,-0.0211
10,GGACAAGA,-0.187
11,ATATTCAA,0.0535
12,CCTAAGAA,0.129
13,GTCCCCCA,-0.289
14,GCAATGCC,-0.181
15,CCACGTAA,0.33
16,AACGATAC,0.097
17,GCCGAAAC,-0.223
18,AATTAGAT,0.201
19,GCATCGCA,-0.347
20,GATAGTCC,0.0572
21,CCACTCCG,-0.269
22,GATTGAGA,0.0728
23,AAGGTTGG,0.0163
24,GTATTGGA,0.0974
25,AAGCTACG,0.0599

row,Sequence,PBM E-score
1,CTTAGTCA,-0.0996
2,AGACAAAG,-0.0171
3,CAGTAATC,-0.0416
4,AACTTTAT,0.148
5,GCCATGTA,0.457
6,TAATAACA,0.387
7,ACGATCCA,0.0206
8,ACTGACAT,0.154
9,GGCTAAAA,-0.191
10,CCTCTAAC,-0.0966
11,AGACGAGA,-0.0304
12,ATAGATCC,-0.201
13,ATTTTACG,0.31
14,CGAATGAG,-0.0828
15,GGGACGTA,0.0861
16,AAAAGTGT,0.0736
17,CTTGGGCA,-0.262
18,GCTCCCCA,-0.282
19,ATGGCACG,-0.0607
20,CAACATGG,0.403
21,ACCCTGCA,0.0038
22,ATAGATTC,0.0476
